Laboratory results taken from the RNAGym collection of RNA variant scans (doi:10.7554/elife.90254).
The source gives no read counts; variants with many changes may rest on few reads.

B1: LINE1-full (parent)
chain: UACGUAGGUGGUUUUCCCCUGAUAGUGCUAAGGGGGCCUGGAAGUUUGGACUGGGCAGAGCUCAACACAGCGUGGCAAAGUGGCUGUGGCUAGACUGCCUCUCUGGAUUCCUCGUCACUCAGCAGGGCAUCUCUGAGAGAAAUGCC

Variants of: B1
Assay: self-cleavage, relative activity (ratio to wild type); higher = more cleavage; in vitro, sequencing; the parent is a self-cleaving ribozyme

Variant	self-cleavage
G34U U108C C113U	1.32
A24G U115A A124G	1.03
U62A A94G C99U U102C	0.04
G32A U102A U119A G127A U130A	0.99
A64U A69U G88A	0.03
U47A U62C C95U U112C A121U G126A A138G	0.01
A24U G32C U108C	1.88
A22G A65G U96A A121G	0
A22U A31G C84G A141G	0.18
U1C A79U A129U	1.81
U46C G88A A142G	0.05
G10A A64U A107U U115C	0.47
U46C C98U G106A A138U	0.35
A59G C111A U115C	0.19
G40A U62A C146U	0.03
A64G U96C U132C A138G	0.4
U9C U47C A94G U132C	1.23
U20C A42U A79G A142G	1.12
U5A A65U A94U A142G	0.14
U9C U39C A69U	0.51
G41A U85C U132C	0.1

Variant	self-cleavage
U15C U46C U81C	1.58
U26C A79U A94G	0.12
U5A G97A A136U	0.13
U9G U14C U15A A42G	1.24
A2U G7A A138G	0.71
U13C U29C U102A	1.36
U14C A50G A67G	0.23
U29C A50G G55C U85C	0
U9C A94G A138G	1.27
U20C C90U A141G U143G	0.01
A124G U132A A138G	0.12
G34C U96A C113U	0.14
U14C G35A U47A A79G	0.66
A42G U85C U143C	0.36
G7U A64G A69U	0.16
U15A A77G G82A	2.25
U15C A57U G125A U130C	0.29
A43G A77G G114A A140G	2.45
U39C U45C A78G A140G	0.8
U13C G33A U46C U100C	0
U5A G54A U91C U100A U143C	0.05

Variant	self-cleavage
A2G U26A A43G A69G A78G A141U	0.64
A42C A43G U109C	0
A22G A30G U39C U134C U143C	0
U9A A78C U102C	1.15
U14A U39A U100C	2.12
U91A A92G U104A	0.13
G41A A64G C99U	0.16
U9C A78G G125U U130C	1.6
G8A U119A U130A	1.33
A42U U87A U104A	0.04
U14C A43G A117G	1.67
A67U U73A U132C A136U	0.02
A6G A64U A92U U102C U109A U134C	0
U12G U108A A124G	1.02
A6G U13C U96C C123G	0.22
A59G G82A A107U	0.01
U15A C37U A43G	0.7
G82A U85A A121C	0.12
A42G A67U A94G U130A	0.09
U9A U13A G58A G72A A136U	0.07
U15C U81C A107U A124G A138G	2.3

Variant	self-cleavage
U9C U39A U96C	0.4
A6G A30U A65G U109C	0
C95U G114A A136G	0.06
C19U A24G G83A A124U	0.71
A24G U96A C146U	0.19
A57U G93A U130C	0.02
U13C U20A U115C A138U	0.94
C3U A78G U112C	0.66
U5C U14A U52A U96C U112C A124U	0.19
U85A A92G U119C A124G	0
A22U A50U U87C U134C A138U	0.53
U9C G53A A59U U96C	0.18
U14A C63A U81C	0.01
U81G A94G A141G	0.12
C68A C99A U112A U132C	0.02
A6G G36U U46C	0.74
A50G C99U U115C	0.84
G8C A22U U47C	1.92
U9C U46C A57G U100C U130C U134A	0
U87A U112C G125U	0.06
U9C U47A U102C	1.48
